Reference: the supplement of paper PMC4967469

How the values were obtained:
Experiment in all cases: Viability of human cancer cell lines after 72 h of drug (GDSC screen)
YM155 = compound: COCC[n+]1c2c(n(Cc3cnccn3)c1C)C(=O)c1ccccc1C2=O [YM155]; conditions: top dose 5.12 µM
Procedure: (§1)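 Human cancer cell lines in 384-well plates, medium with 10% serum, drug for 72 h over a 256-fold dose range (nine 2-fold or five 4-fold steps up to the top dose). Adherent lines were fixed and stained with the nucleic acid dye Syto60, suspension lines read with resazurin; signal relative to control wells, capped at 0 and 100%. One two-parameter sigmoid per drug and line, fitted in a mixed model over all curves with the slope shared within a line.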

FTI-277 = compound: COC(=O)[C@H](CCSC)NC(=O)c1ccc(NC[C@@H](N)CS)cc1-c1ccccc1 [FTI-277]; conditions: top dose 1.024 µM; top dose inferred
Procedure: as §1

AMG-706 = compound: CC1(C)CNc2cc(NC(=O)c3cccnc3NCc3ccncc3)ccc21 [AMG-706]; conditions: top dose 2 µM; top dose inferred
Procedure: as §1

JNK Inhibitor VIII = compound: CCOc1nc(NC(=O)Cc2cc(OC)ccc2OC)cc(N)c1C#N [JNK Inhibitor VIII]; conditions: top dose 10 µM; top dose inferred
Procedure: as §1

JQ1 = compound: Cc1sc2c(c1C)C(c1ccc(Cl)cc1)=N[C@@H](CC(=O)OC(C)(C)C)c1nnc(C)n1-2 [JQ1]
Procedure: as §1

JNJ-26854165 = compound: c1ccc2c(CCNc3ccc(Nc4ccncc4)cc3)c[nH]c2c1 [JNJ-26854165]; conditions: top dose 10 µM
Procedure: as §1

OSI-906 = compound: C[C@]1(O)C[C@@H](c2nc(-c3ccc4ccc(-c5ccccc5)nc4c3)c3c(N)nccn32)C1 [OSI-906]; conditions: top dose 2.56 µM; top dose inferred
Procedure: as §1

Belinostat = compound: O=C(/C=C/c1cccc(S(=O)(=O)Nc2ccccc2)c1)NO [Belinostat]; conditions: top dose 20 µM; top dose inferred
Procedure: as §1

SB-715992 = compound: Cc1ccc(C(=O)N(CCCN)[C@@H](c2nc3cc(Cl)ccc3c(=O)n2Cc2ccccc2)C(C)C)cc1 [SB-715992]; conditions: top dose 0.128 µM; top dose inferred
Procedure: as §1

NSC-207895 = compound: CN1CCN(c2ccc([N+](=O)[O-])c3no[n+]([O-])c23)CC1 [NSC-207895]; conditions: top dose 20 µM; top dose inferred
Procedure: as §1

[1] = top dose 1 µM, screen: GDSC drug entry 1218, top dose inferred
[2] = top dose 2.56 µM, screen: GDSC drug entry 163

Row | Cell Line | AUC (YM155) | IC50 (YM155) [nM] | AUC (FTI-277) | IC50 (FTI-277) [nM] | AUC (AMG-706) | IC50 (AMG-706) [nM] | AUC (JNK Inhibitor VIII) | IC50 (JNK Inhibitor VIII) [nM] | AUC (JQ1; [1]) | IC50 (JQ1; [1]) [nM] | AUC (JQ1; [2]) | IC50 (JQ1; [2]) [nM] | AUC (JNJ-26854165) | IC50 (JNJ-26854165) [nM] | AUC (OSI-906) | IC50 (OSI-906) [nM] | AUC (Belinostat) | IC50 (Belinostat) [nM] | AUC (SB-715992) | IC50 (SB-715992) [nM] | AUC (NSC-207895) | IC50 (NSC-207895) [nM]
1 | LC-1-sq (lung squamous cell carcinoma, adherent) | 0.39 | 152 | 0.977 | > 1020 | 0.965 | > 2000 | 0.98 | > 10000 | 0.983 | > 1000 | 0.769 | 1130 | 0.856 | > 10000 | 0.956 | > 2560 | 0.452 | 903 | 0.788 | 66.8 | 0.98 | > 20000
2 | OAW-28 (ovary, adherent) | 0.169 | 22.7 | 0.982 | > 1020 | 0.867 | > 2000 | 0.942 | > 10000 | 0.97 | > 1000 | 0.871 | > 2560 | 0.911 | > 10000 | 0.976 | > 2560 | 0.266 | 221 | 0.757 | 55.1 | 0.983 | > 20000
3 | MHH-ES-1 (Ewing sarcoma, adherent) | 0.026 | < 20 | 0.925 | > 1020 | 0.904 | > 2000 | 0.909 | > 10000 | 0.984 | > 1000 | 0.726 | 697 | 0.852 | 7550 | 0.847 | 1850 | 0.296 | 335 | 0.495 | 7.73 | 0.985 | > 20000
4 | CAL-12T (non-small cell lung carcinoma, adherent) | 0.066 | < 20 | 0.966 | > 1020 | 0.98 | > 2000 | 0.983 | > 10000 | 0.981 | > 1000 | 0.91 | > 2560 | 0.967 | > 10000 | 0.82 | 1710 | 0.493 | 1200 | 0.717 | 35.7 | 0.849 | 17900
5 | SW1573 (lung adenocarcinoma, adherent) | 0.187 | 25.3 | 0.978 | > 1020 | 0.978 | > 2000 | 0.965 | > 10000 | 0.978 | > 1000 | 0.883 | > 2560 | 0.853 | > 10000 | 0.918 | > 2560 | 0.635 | 3370 | 0.969 | > 128 | 0.98 | > 20000
6 | BPH-1 (prostate, adherent) | 0.04 | < 20 | 0.934 | > 1020 | 0.915 | > 2000 | 0.944 | > 10000 | 0.961 | > 1000 | 0.335 | 52.5 | 0.837 | 7700 | 0.914 | > 2560 | 0.22 | 171 | 0.543 | 10.6 | 0.896 | > 20000
7 | NCI-H1703 (lung adenocarcinoma, adherent) | 0.155 | 20.6 | 0.959 | > 1020 | 0.535 | 160 | 0.934 | > 10000 | 0.979 | > 1000 | 0.903 | > 2560 | 0.869 | > 10000 | 0.968 | > 2560 | 0.816 | 14300 | 0.664 | 25.4 | 0.919 | > 20000
8 | LCLC-97TM1 (large cell lung carcinoma, adherent) | 0.03 | < 20 | 0.906 | > 1020 | 0.983 | > 2000 | 0.982 | > 10000 | 0.981 | > 1000 | 0.471 | 132 | 0.883 | > 10000 | 0.525 | 188 | 0.398 | 636 | 0.641 | 20.4 | 0.796 | 10400
9 | SISO (cervix, adherent) | 0.024 | < 20 | 0.978 | > 1020 | 0.957 | > 2000 | 0.982 | > 10000 | 0.838 | 637 | 0.609 | 314 | 0.912 | > 10000 | 0.774 | 966 | 0.568 | 1910 | 0.769 | 46.4 | 0.844 | 13400
10 | HLE (liver, adherent) | 0.052 | < 20 | 0.982 | > 1020 | 0.989 | > 2000 | 0.952 | > 10000 | 0.987 | > 1000 | 0.75 | 794 | 0.824 | 5520 | 0.967 | > 2560 | 0.344 | 475 | 0.928 | > 128 | 0.525 | 1460
11 | FADU (head and neck, adherent) | 0.041 | < 20 | 0.969 | > 1020 | 0.924 | > 2000 | 0.97 | > 10000 | – | – | 0.784 | 1050 | 0.798 | 4570 | 0.988 | > 2560 | 0.629 | 2790 | 0.955 | > 128 | 0.982 | > 20000
12 | COR-L23 (large cell lung carcinoma, adherent) | 0.05 | < 20 | 0.964 | > 1020 | 0.963 | > 2000 | 0.956 | > 10000 | 0.967 | > 1000 | 0.881 | > 2560 | 0.849 | 7200 | 0.966 | > 2560 | 0.383 | 602 | 0.73 | 35.3 | 0.983 | > 20000

The IC50 comes from the fitted curve, where viability falls to half of the control; fits outside the tested doses are given as limits. AUC, from the same fit, is the share of area under the viability curve across the 256-fold dose range; values near 1 show little effect. For some of these results: Any top dose called inferred comes from the curve model; the source does not state it. For some of these results: Drugs with an entry number were screened twice under separate entries, and the two screens often disagree.
